# From PubChem BioAssay AID1671193 (National Center for Advancing Translational Sciences (NCATS), 2021)
# Values joined by “and” are separate entries in the source; they are usually repeats but may differ in a detail not shown here. Equal entries are not always repeated. In all, about 150,000 compounds went through this assay and about 180 (0.12%) were called active. The shares of active, inactive and inconclusive entries below differ from those in the screen. Calls come from the whole dose curve; as a rule, active = well fitted cell-killing curve with a large enough effect; inconclusive = small, poorly fitted or top-dose-only effect, or effect the other way; inactive = flat fitted curve, though single readings scatter. Potencies beside an inconclusive call are fits to weak or partial responses and may not hold up. A structure can be active in one record and inactive in another.
# Assay: GF-AFC viability counterscreen for inhibitors of alpha-synuclein gene (SNCA) expression; note: nearly all actives have a fitted effect of over 30% in size;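 for activity change, negative = cytotoxicity: 0% = DMSO-treated cells and -100% = medium-only wells without cells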
# Conditions: HEK-293-SNCA-luc viability, GF-AFC fluorescence, 24 h; activity change, negative = cytotoxicity: at 57.1 µM (top of the series) unless noted
# In short: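 HEK-293-SNCA-luc cells (1500/well) plated 24 h, then exposed 24 h to a dilution series; GF-AFC added 30 min at 37C, fluorescence 405/540 nm; normalised to medium-only and DMSO wells, Hill fit.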
# Potency is the fitted concentration of half-maximal effect; tags give direction and shape of the fitted curve.
Structure (SMILES),Potency,"activity change, negative = cytotoxicity"
CC1(c2ccccc2)N(Cc2ccccc2C#N)C(=O)OC12CCN(Cc1ccccc1F)CC2 (centres undefined),"inconclusive: 28.2 µM [cytotoxic, single point]",
O=C(Nc1ccc(F)c(F)c1)C1CCCN1S(=O)(=O)c1cccc2nsnc12 (centres undefined),"inconclusive: 20 µM [cytotoxic, single point]",
O=C(NCc1ccccc1Cl)C1CCCN(c2ccnc3ccnn23)C1 (centres undefined),"inconclusive: 35.5 µM [cytotoxic, partial curve, poor fit]",
C=C1C(=O)O[C@H]2[C@@H]1CCC(C)=CCC[C@@]1(C)O[C@@H]21,"inconclusive: 24.1 µM [cytotoxic, partial curve, poor fit]",
CC(=O)N(C)C1(c2ccccc2)CCN(CCC[C@]2(c3ccc(Cl)c(Cl)c3)CCCN(C(=O)c3ccccc3)C2)CC1,inactive and active: 2.15 µM,
CCc1cccc2c(C(CC(=O)NC(C)CC)c3ccc(OC)c(OC)c3)c[nH]c12 (centres undefined),"inconclusive: 39.8 µM [cytotoxic, single point]",
COc1ccc(-c2[nH]c(-c3ccc(F)cc3)nc2SCC(=O)Nc2ccc(OC)c(OC)c2)cc1,"inconclusive: 28.2 µM [cytotoxic, partial curve, poor fit]",
COc1ccc(CCNC(=O)Cn2c(C)c3cnn(-c4ccccc4)c(=O)c3c2C)cc1OC,"inconclusive: 39.8 µM [cytotoxic, single point]",
Cc1cc(O)c(C)c(C)c1O,inactive,
O=C1Nc2ccc(/C=C/c3ccccc3)cc2C(=O)N2C[C@H](O)C[C@@H]12,inactive,
CCOC(=O)c1c(Nc2ccccc2)nnc(-c2ccccc2)c1-c1ccccc1,"inconclusive: 39.8 µM [cytotoxic, single point]",
COc1cccc(CN2C(=O)OC3(CCN(C(=O)c4ccn(C)n4)CC3)C2(C)c2cccnc2)c1 (centres undefined),inactive,
CCN(CC)C(=O)Cn1c(SCC(=O)Nc2ccc(C)c(C)c2)nc2ccccc21,"inconclusive: 11.2 µM [cytotoxic, partial curve, poor fit]",
CC(C)(C)OC(=O)N1CCC(c2c(C(=O)NCCN3CCOCC3)cnn2-c2ccccc2)CC1,"inconclusive: 39.8 µM [cytotoxic, single point]",
Cc1ccc(-c2nnc(C3CN(C(=O)c4ccc(Cl)s4)CC34CCOCC4)o2)cc1 (centres undefined),"inconclusive: 20 µM [cytotoxic, single point]",
COc1cccc(Cn2c(SCc3ccc(C(=O)N4CCC(C)CC4)cc3)nc3ccncc32)c1,"inconclusive: 28.2 µM [cytotoxic, single point]",
O=c1n(-c2ccc(Cl)cc2)nc2n1CCN([S+](=O)([O-])c1cccs1)C2,inactive,
COc1ccccc1-c1cccc(CN2CCCC(C(=O)Nc3cccc(Cl)c3)C2)c1 (centres undefined),"inconclusive: 15.8 µM [cytotoxic, partial curve, poor fit]",
CCCn1c2ccccc2c2cnn(CC(=O)N(CCCOC(C)C)Cc3ccco3)c(=O)c21,"inconclusive: 39.8 µM [cytotoxic, single point]",
CN1C(=O)C(CC(=O)N2CC(n3cccn3)C2)(Cc2ccccc2)c2ccccc21 (centres undefined),inactive,

Structure (SMILES),Potency,"activity change, negative = cytotoxicity"
Cn1c(=O)c(-c2ccccc2)nc2cnc(N3CCNCC3)nc21,"inconclusive: 25.1 µM [rising, partial curve]",
Cn1ncc2c(C(=O)NCc3cccnc3)cc(-c3cccnc3)nc21,inactive,
COc1ccc(CN2C(=O)[C@@H]3C[C@@H](CN3Cc3ccccc3C)Oc3ccccc32)cc1,"inconclusive: 28.2 µM [cytotoxic, partial curve, poor fit]",
COc1ccc(-c2noc([C@@H]3CCCN3C3CCCCC3)n2)cn1,inactive,
CCC1=C(C(=O)OC)C(c2ccccc2Cl)N2C(CC(=O)NCC3CC3)=CSC2=N1 (centres undefined),"inconclusive: 39.8 µM [cytotoxic, single point]",
CCn1cc(C(=O)NCCc2ccc(OC)c(OC)c2)c(=O)c2cc(S(=O)(=O)N3CCc4ccccc4C3)ccc21,"inconclusive: 31.6 µM [cytotoxic, partial curve, poor fit]",
Cc1cc(Cl)ccc1-c1cccc(CN)c1,"inconclusive: 20 µM [cytotoxic, partial curve, poor fit]",
CN(C(=O)CCCOc1ccc2[nH]c(=O)ccc2c1)C1CCCCC1,,inconclusive: 92.4% [at 23.9 µM]
COc1cccc(CNC(=O)c2ccc3nnc(-c4c(C)cccc4C)n3c2)c1,"inconclusive: 2.82 µM [rising, full curve, poor fit]",
CC1CCN(C(=O)CSc2c3c(nc4cc(Cl)ccc24)CCCC3)CC1,"inconclusive: 28.2 µM [cytotoxic, single point]",
COc1ncccc1-c1cc(C(=O)N2CCCC(OC)C2)c2c(c1)ncn2C (centres undefined),inactive,
CCOc1cc(CN(C)C(=O)CC2C(=O)NCCN2Cc2ccccc2)ccc1OC (centres undefined),"inconclusive: 28.2 µM [cytotoxic, partial curve, poor fit]",
O=C(CCC1CCCC1)N1CC(N(Cc2ccccn2)C(=O)Nc2ccccc2)C1,"inconclusive: 39.8 µM [cytotoxic, single point]",
CNC(=O)CCn1ncc2cc(OCc3ccccc3-c3cc(F)ccc3OC)ccc21,"inconclusive: 63.1 µM [cytotoxic, single point]",
FC(F)(F)c1cc(CN2CC3(CCNCC3)C2)cc(C(F)(F)F)c1,"inconclusive: 39.8 µM [cytotoxic, single point]",
CC(C)CNC(=O)c1nc2sccn2c1-c1ccc(F)cc1,inactive,
CN(C)c1ncc2nc(-c3cn(C)c4ccccc34)c(=O)n(C[C@H]3CCCO3)c2n1,"inconclusive: 10 µM [rising, partial curve]",
CCc1nc2ccc(C(=O)NCCc3ccc(SC)cc3)cc2nc1CC,"inconclusive: 25.1 µM [cytotoxic, partial curve, poor fit]",
CCOC(=O)c1ccc(N2C(=O)c3n[nH]c(-c4cccs4)c3C2c2ccc(O)c(OC)c2)cc1 (centres undefined),"inconclusive: 39.8 µM [cytotoxic, single point]",
